Laboratory results taken from the supplement of paper PMC9446081.
About 220 (0.56%) of roughly 39,000 compounds showed activity. The list shows a part of the results.

What follows are compounds tested on Escherichia coli K-12 BW25113 (assay: relative growth (OD600 normalised to plate interquartile mean) (fraction); higher = less growth inhibition, active = 0.2 or less). Conditions: 50 µM; LB; incubation time: overnight (16-24 h).
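Further: static incubation at 37 °C against the wild-type strain, values averaged over two biological replicates.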

Compound | relative growth
C[C@@H]1CC[C@H](C)N1c1cc(C(F)(F)F)cc(C(F)(F)F)c1 | inactive: 0.947
Cc1noc(C)c1S(=O)(=O)Nc1ccc2c(c1)C(=O)N([C@H](C)CO)C[C@H](C)[C@H](CN(C)C(=O)Nc1ccc(F)cc1)OCCCC[C@@H](C)O2 | inactive: 0.984
C[C@@H]1CN([C@H](C)CO)C(=O)Cc2cc(NC(=O)Nc3ccc(C(F)(F)F)cc3)ccc2O[C@H]1CN(C)Cc1ccc(C(=O)O)cc1 | inactive: 0.994
NC(C(=O)O)C(O)C(=O)O (stereo not drawn) ["d,l-threo-3-HYDROXYASPARTIC ACID"] | inactive: 1.08
O=C(Nc1ccno1)NN1CCOCC1 | inactive: 0.964
C[C@@H]1CN([C@H](C)CO)C(=O)Cc2cc(NC(=O)CCCCCC(=O)Nc3ccccc3N)ccc2O[C@@H]1CN(C)Cc1ccc(-c2ccccc2)cc1 | inactive: 0.996
CO[C@@H]1CN(C)C(=O)c2ccc(NC(=O)CC(F)(F)F)cc2OC[C@@H](C)N(S(=O)(=O)c2cn(C)cn2)C[C@@H]1C | inactive: 1
Cc1noc(C)c1S(=O)(=O)Nc1ccc2c(c1)C(=O)N([C@@H](C)CO)C[C@H](C)[C@@H](CN(C)S(=O)(=O)c1cn(C)cn1)OCCCC[C@@H](C)O2 | inactive: 0.985
N=C(N)NC[C@H]1COC2(CCCCC2)O1 | inactive: 0.987
COc1ccc(S(=O)(=O)Nc2ccc3c(c2)C(=O)N([C@@H](C)CO)C[C@H](C)[C@@H](CN(C)Cc2ccc(C(F)(F)F)cc2)OCCCC[C@@H](C)O3)cc1 | inactive: 1.05
Cc1ccc(S(=O)(=O)Nc2ccc3c(c2)C(=O)N([C@H](C)CO)C[C@@H](C)[C@H](CN(C)C(=O)Nc2ccc4c(c2)OCO4)OCCCC[C@@H](C)O3)cc1 | inactive: 1.01
C[C@H]1CCCCO[C@@H](CN(C)Cc2ccc(C(F)(F)F)cc2)[C@@H](C)CN([C@@H](C)CO)C(=O)c2cc(NC(=O)Nc3ccc(C(F)(F)F)cc3)ccc2O1 | inactive: 1.07
C[C@H](CO)N1C[C@H](C)[C@@H](CN(C)C(=O)c2ccc3c(c2)OCO3)Oc2cc(C#Cc3ccccc3F)ccc2S1(=O)=O | inactive: 1.02
CO[C@H]1CN(C)C(=O)c2cc(NC(=O)NC3CCCCC3)ccc2OC[C@H](C)N(CCc2ccccc2)C[C@@H]1C | inactive: 0.986
C[C@@H]1CN([C@@H](C)CO)S(=O)(=O)c2ccc(C#CC3(O)CCCC3)cc2O[C@H]1CN(C)C(=O)Cc1cccnc1 | inactive: 1.03
C[C@@H]1CCCCO[C@@H](CN(C)Cc2ccc(C(=O)O)cc2)[C@H](C)CN([C@H](C)CO)C(=O)c2cc(NS(=O)(=O)c3ccc(F)cc3)ccc2O1 | inactive: 1.01
O=S(=O)(NCC[C@H]1CC[C@H](NS(=O)(=O)c2ccccc2Cl)[C@@H](CO)O1)c1ccc(F)cc1 | inactive: 1.03
C[C@H]1CN([C@@H](C)CO)C(=O)Cc2cc(NS(=O)(=O)c3cn(C)cn3)ccc2O[C@@H]1CN(C)Cc1ccccc1 | inactive: 1.01
C[C@@H]1CN([C@@H](C)CO)C(=O)c2cc(NC(=O)c3ccncc3)ccc2O[C@@H](C)CCCCO[C@@H]1CN(C)C(=O)Nc1ccc(C(F)(F)F)cc1 | inactive: 0.953

Compound | relative growth
COc1ccc(CN2C[C@@H](C)[C@H](OC)CN(C)C(=O)c3ccc(NC(=O)c4nc5ccccc5s4)cc3OC[C@H]2C)cc1 | inactive: 1.02
C[C@H](CO)N1C[C@H](C)[C@@H](CN(C)C(=O)Nc2ccc(C(F)(F)F)cc2)OCCCC[C@H](C)Oc2ccc(NS(C)(=O)=O)cc2C1=O | inactive: 0.939
O=C(C[C@@H]1CC[C@H]2[C@@H](COC[C@@H](O)CN2S(=O)(=O)c2ccc(Oc3ccccc3)cc2)O1)NC1CCC1 | inactive: 1
C[C@@H]1CCCCO[C@@H](CN(C)Cc2ccccc2)[C@@H](C)CN([C@H](C)CO)C(=O)c2cc(NC(=O)CCCCCC(=O)Nc3ccccc3N)ccc2O1 | inactive: 0.993
C[C@@H]1CCCCO[C@@H](CN(C)Cc2ccncc2)[C@H](C)CN([C@@H](C)CO)C(=O)c2cc(NS(C)(=O)=O)ccc2O1 | inactive: 1.02
C[C@H](N)CCP(=O)(O)O | inactive: 1.01
Cc1noc(C)c1NC(=O)Nc1ccc2c(c1)C(=O)N([C@H](C)CO)C[C@H](C)[C@@H](CN(C)C(=O)NC1CCCCC1)OCCCC[C@H](C)O2 | inactive: 1.01
Cc1noc(C)c1NC(=O)Nc1ccc2c(c1)CC(=O)N([C@H](C)CO)C[C@@H](C)[C@@H](CN(C)S(=O)(=O)c1cn(C)cn1)O2 | inactive: 0.985
C[C@@H]1CN([C@@H](C)CO)C(=O)Cc2cc(NC(=O)Nc3ccc(F)cc3)ccc2O[C@@H]1CN(C)Cc1ccc(Oc2ccccc2)cc1 | inactive: 0.981
Cc1ccc(-n2nc(C(C)(C)C)cc2NC(=O)Nc2ccc(OCCN3CCOCC3)c3ccccc23)cc1 | inactive: 1
COc1ccc(S(=O)(=O)Nc2ccc3c(c2)CC(=O)N([C@H](C)CO)C[C@@H](C)[C@H](CN(C)S(=O)(=O)c2cn(C)cn2)O3)cc1 | inactive: 1
Cc1ccccc1S(=O)(=O)N1C[C@@H](O)COC[C@H]2O[C@H](CC(=O)N3CCN(C)CC3)CC[C@@H]21 | inactive: 0.984
C[C@H](CO)N1C[C@H](C)[C@H](CN(C)C(=O)Nc2ccnc(N3CCOCC3)c2)OCc2cnnn2CCCC1=O | inactive: 1
COc1cccnc1N | inactive: 0.99
C[C@@H]1CN([C@@H](C)CO)C(=O)Cc2cc(NS(=O)(=O)c3ccc(F)cc3)ccc2O[C@@H]1CN(C)CC1CC1 | inactive: 1.01
COc1cccc(S(=O)(=O)N2C[C@@H](O)COC[C@@H]3O[C@H](CC(=O)NCCCN4CCOCC4)CC[C@H]32)c1 | inactive: 0.98
CC(C)(C)[S@@](=O)N1Cc2cc(C(=O)N[C@H]3CCN(Cc4ccccc4)C3)nc(-c3cccc(-c4cccnc4)c3)c2[C@H]1CCO | inactive: 0.991
COc1cccc(C#Cc2ccc3c(c2)O[C@@H](CN(C)S(=O)(=O)c2ccccc2F)[C@@H](C)CN([C@H](C)CO)S3(=O)=O)c1 | inactive: 1.04
